Data: article PMC4336329 (PLoS ONE, 2015)
In all, about 310,000 compounds went through this assay and about 2,200 (0.71%) showed an effect of 50% or more. Effects have a minus sign here. The list shows a part of the results.

target: human ether-à-go-go-related gene (hERG) potassium channel (human, UniProt Q12809); experiment: primary screen, population patch clamp on CHO cells stably expressing hERG
Sequence (Q12809 whole entry, looked up): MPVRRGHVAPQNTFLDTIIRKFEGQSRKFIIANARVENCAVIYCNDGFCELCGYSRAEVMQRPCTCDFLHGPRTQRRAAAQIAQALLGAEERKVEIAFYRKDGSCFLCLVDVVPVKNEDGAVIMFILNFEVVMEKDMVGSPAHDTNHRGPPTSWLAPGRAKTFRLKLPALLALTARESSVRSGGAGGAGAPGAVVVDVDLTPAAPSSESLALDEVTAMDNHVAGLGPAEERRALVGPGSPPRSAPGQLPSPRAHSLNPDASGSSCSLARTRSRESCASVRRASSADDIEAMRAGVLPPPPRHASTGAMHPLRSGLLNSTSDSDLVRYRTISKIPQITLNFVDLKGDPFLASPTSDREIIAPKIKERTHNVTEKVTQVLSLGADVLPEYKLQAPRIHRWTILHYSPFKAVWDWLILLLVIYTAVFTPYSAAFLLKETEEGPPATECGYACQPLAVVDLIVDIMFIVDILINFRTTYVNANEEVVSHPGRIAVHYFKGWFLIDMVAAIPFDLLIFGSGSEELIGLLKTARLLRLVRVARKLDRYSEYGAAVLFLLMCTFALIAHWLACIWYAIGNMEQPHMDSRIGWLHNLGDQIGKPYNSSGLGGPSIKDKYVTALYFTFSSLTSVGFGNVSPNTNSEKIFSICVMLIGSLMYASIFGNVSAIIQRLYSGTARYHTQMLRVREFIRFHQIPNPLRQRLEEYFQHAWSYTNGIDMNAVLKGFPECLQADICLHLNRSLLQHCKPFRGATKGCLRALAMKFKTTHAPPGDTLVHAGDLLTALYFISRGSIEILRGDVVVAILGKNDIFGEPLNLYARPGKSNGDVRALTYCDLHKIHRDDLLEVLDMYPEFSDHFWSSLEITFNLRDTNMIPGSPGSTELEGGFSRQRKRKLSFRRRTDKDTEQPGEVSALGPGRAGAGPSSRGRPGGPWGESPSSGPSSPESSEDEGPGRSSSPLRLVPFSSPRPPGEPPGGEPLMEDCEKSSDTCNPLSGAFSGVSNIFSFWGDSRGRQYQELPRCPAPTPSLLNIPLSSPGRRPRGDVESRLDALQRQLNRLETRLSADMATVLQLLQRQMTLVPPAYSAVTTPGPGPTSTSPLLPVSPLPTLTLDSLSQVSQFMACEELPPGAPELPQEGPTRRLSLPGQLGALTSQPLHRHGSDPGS

Row | Compound | hERG current change (%, negative = inhibition) at 1uM [%]
1 | CC(C)CC(NS(=O)(=O)c1ccc2c(c1)oc(=O)n2C)C(=O)NCc1cccnc1 (centres unmarked) | 11.9
2 | N#C/C(=C\c1ccccc1Cl)C(=O)NC(=O)Oc1ccccc1 | 20
3 | COc1cc(NC(=O)Nc2cccc(Cl)c2)c(C(=O)O)cc1OC | 15.9
4 | COCCn1c(-c2cc(OC)c(OC)c(OC)c2)nc2oc3cc(OC)ccc3c(=O)c2c1=O | 9.98
5 | COc1ccc(COC(=O)c2cc([N+](=O)[O-])ccc2N2CCOCC2)cc1F | -11.7
6 | COc1ccc(CCNCc2ccccc2N2CCCC2)cc1.O=C(O)C(=O)O | 1.68
7 | COc1cc(C(C)=O)ccc1O | 13.3
8 | COC(=O)C(NS(C)(=O)=O)(c1c(C)[nH]c2ccccc12)C(F)(F)F (centres unmarked) | -3.55
9 | CCc1c(C)nc2ncnn2c1N1CCC(C(=O)NCc2cccs2)CC1 | -4.9
10 | COc1ccc2c(c1OC)C(=O)N(c1ccc(C)cc1)C2=O | 0.784
11 | O=C(O)Cc1ccc(C(=O)c2ccc(F)cc2)s1 | 10.7
12 | O=C(NCc1nnc(SCC(=O)N2CCN(c3ccccc3)CC2)o1)c1ccco1 | 8.83
13 | CC(C)(C)c1ccc(C(=O)NCc2nnc(SCC(=O)NC3CCCC3)o2)cc1 | 9.82
14 | CCCN1C(=S)SC(C)(C)C1/[N+]([O-])=C/c1ccc(S(=O)(=O)NC)cc1 (centres unmarked) | 15.9
15 | COc1ccc(C2Nc3ccccc3C(=O)N2Cc2ccccc2)cc1CSc1ccccn1 (centres unmarked) | 13.7
16 | CC(OC(=O)c1cccs1)C(=O)NCCc1ccccc1 (centres unmarked) | 10.2
17 | Cn1c(=O)c2c(nc(CN3CCN(C(=O)c4ccco4)CC3)n2CCCc2ccccc2)n(C)c1=O | -25.5
18 | Cc1sc2nc3ccc(N4CCCC4)nn3c(=O)c2c1C | -7.29
19 | CCc1nc2ccccc2n(CCOCCOCCn2c(=O)c(CC)nc3ccccc32)c1=O | 3.28
20 | CCCCCCCC(=O)NNC(=O)c1ccc([N+](=O)[O-])cc1 | -2.83
21 | CCNc1nc(NCC)nc(SCCOC(=O)Nc2ccc(Cl)cc2Cl)n1 | 0.538
22 | CC(CCc1ccccc1)NC(=O)C1CCN(C(=O)c2sccc2-n2cccc2)CC1 (centres unmarked) | 6.71

Row | Compound | hERG current change (%, negative = inhibition) at 1uM [%]
23 | O=C(O)c1ccc(-c2ccccc2)[nH]1 | 9.63
24 | COCCN1C(=O)N(c2cccc(C)c2)C(=O)C1CC(=O)Nc1ccc(F)cc1 (centres unmarked) | 0.812
25 | O=[N+]([O-])c1ccc(O)c(/C=N/Nc2ccccc2Cl)c1 | 23.4
26 | CC(NC(=O)c1cccc(S(=O)(=O)N2CCN(C)CC2)c1)C1CC2CCC1C2 (centres unmarked) | 1.27
27 | CN1C(=O)NC(c2ccc(O)cc2)C2=C1CN(c1ccc(O)cc1)C2=O (centres unmarked) | 18.6
28 | CCOC(=O)c1ccc(NC(=O)C(=O)NCC2CCCO2)cc1 (centres unmarked) | 14
29 | CCCCC1=CC2=C(c3ccco3)C(=O)C(C)(OC(=O)c3ccc(OC)cc3)C(=O)C2=CN1CCCCO (centres unmarked) | 3.37
30 | O=C(CSc1nnc(-c2ccncc2)n1-c1ccc(Cl)cc1)N1CCOCC1 | 4.03
31 | CC(C)CC(=O)N1CCN(c2ccc([N+](=O)[O-])cc2Cl)CC1 | -8.56
32 | COc1ccc(CNc2nc3nc4c(c(=O)n3[nH]2)CCC4)cc1 | 5.27
33 | O=C(CN1CCN(S(=O)(=O)c2ccc(F)cc2)CC1)Nc1ccc2c(c1)OCO2 | -8
34 | O=C1CC(C(=O)N2CCN(c3ccccc3Cl)CC2)CN1Cc1ccccc1 (centres unmarked) | 2.1
35 | CCCC1=Nc2cc(C(=O)NCCCN3CCN(C)CC3)ccc2Sc2ccccc21 | 9.88
36 | CCCN(CCC)CCCNc1ccc(C(=O)Nc2cccc(OC)c2)cc1[N+](=O)[O-].Cl | -47.6
37 | CC1CCC2(CC1)NC(=O)N(Cc1cc(=O)n3ccsc3n1)C2=O (centres unmarked) | 7.92
38 | Cc1cc(C)cc(-c2nnc(SCc3ccc(C(=O)O)cc3)o2)c1 | -13.9
39 | O=C(NCCc1nnc2ccc(SCC(=O)N3CCCC3)nn12)c1ccccc1 | 6.23
40 | Cl.O.O=C1Cc2ccccc2Sc2c(OCCN3CCCCC3)cccc21 | -46.2
41 | CCc1ccc(C(=O)NNC(=O)C2CC(=O)N(Cc3ccccc3)C2)cc1 (centres unmarked) | -2.06
42 | Cc1ccc(NC(=O)NC(=O)CN2C(=O)NC3(CCCCCCC3)C2=O)c(C)c1 | 16.8
43 | CC(C)C1Nc2ccc(S(N)(=O)=O)cc2C2C=CCC21 (centres unmarked) | 8.92
44 | CC(=O)NCCNC(=O)c1ccc2c(c1)S(=O)(=O)c1ccccc1C2=O | 11.8

Row | Compound | hERG current change (%, negative = inhibition) at 1uM [%]
45 | CCOc1ccc(N2C(=O)CC(N3CCN(c4ccccc4OC)CC3)C2=O)cc1 (centres unmarked) | 10.1
46 | COc1ccc2c(c1)C1C=CCC1C(c1cc3c(cc1Br)OCO3)N2 (centres unmarked) | 8.48
47 | S=C(NCCCN1CCOCC1)N1CCN(c2cccc(Cl)c2)CC1 | 0.873
48 | O=C(c1n[nH]c(=O)c2ccccc12)N1CCN(c2ccc(F)cc2)CC1 | 7.48
49 | CN1CCc2nc3sc(C(=O)NCc4ccccc4)c(N)c3cc2C1 | -12.3
50 | O=C(Nc1ccc2ccccc2c1)c1ccc(NS(=O)(=O)c2ccc(Br)s2)cc1 | 13.8
51 | O=C1Nc2c(Br)cc(Br)c3cccc1c23 | 12.6
52 | COc1ccccc1NC(=O)CCCCCN1C(=O)c2cccc3cccc(c23)C1=O | 12.1
53 | O=C(Cc1ccc(F)cc1)N(c1ccc(F)cc1)C1C=CS(=O)(=O)C1 (centres unmarked) | 12.4
54 | CN1CCN(CC(=O)n2c3c(c4ccccc42)CCCC3)CC1.Cl | 9.8
55 | Cc1cc(=O)oc2cc(OCC(O)CN3CCN(c4ccc(F)cc4)CC3)ccc12 (centres unmarked) | -8.99
56 | CCCCCn1c(CN2CC(C)OC(C)C2)nc2c1c(=O)n(C)c(=O)n2C (centres unmarked) | 7.84
57 | Cc1cc(C)c(S(=O)(=O)N(C)CC(=O)NC2CCCC2)c(C)c1 | -0.0986
58 | Cc1ccc(-n2cc(C(=O)c3cc(Cl)ccc3O)cc(C#N)c2=O)cc1 | 16
59 | CN(Cc1ccccc1)S(=O)(=O)c1ccc2c(c1)n(C)c(=O)c(=O)n2C | 8.83
60 | O=C(Nc1ccnn1C1CCN(C(=O)c2cccc(C(F)(F)F)c2)CC1)C1CC1 | -10.8
61 | COc1ccc(/C=C2/N=C(c3cccs3)OC2=O)cc1OC(C)C | 14.4
62 | O=C(Nc1cccc(C(F)(F)F)c1)N(Cc1ccc(Cl)cc1)CC(O)C(F)(F)F (centres unmarked) | 5.72
63 | CCCCn1nc(CC(=O)NCCN(CC)CC)c2ccccc2c1=O | 13.6
64 | Cc1cc(/C=C(\C#N)C(=O)NCc2cccs2)c(C)[nH]1 | 6.87
65 | CCOC(=O)C1CCN(C(=O)c2cccc(NS(=O)(=O)c3ccc(F)c(F)c3)c2)CC1 | 7.17
66 | C=CCOc1ccc(-c2nc3c(c(=O)[nH]c(=O)n3CCC)n2CCCC)cc1 | 7.5

Row | Compound | hERG current change (%, negative = inhibition) at 1uM [%]
67 | COc1ccc2c(c1)OC1(C)CC2C(C(=O)c2ccccc2OC)C(=O)N1 (centres unmarked) | 10.8
68 | Cc1ccnc(N/N=C/c2ccco2)n1 | 15
69 | Clc1ccc(-c2nnc3n2CCCC3)cc1 | 15.6
70 | CCOc1cccc(NCc2cc3c(C(C)(C)C)nn(-c4ccccc4)c3[nH]c2=O)c1 | 6.67
71 | CN1CCN(c2nc(-c3cccnc3)nc3scc(-c4ccccc4)c23)CC1 | 10.5
72 | CC(C)(C)c1ccc(S(=O)(=O)N2CCC(CO)(CC3CCCCO3)CC2)cc1 (centres unmarked) | 17.4
73 | Cc1nc2nc(C)c(CCC(=O)Nc3ccc4c(c3)OCO4)c(C)n2n1 | -12.9
74 | O=C(O)CCCNC(=O)c1cccc(C(=O)NCCCC(=O)O)n1 | 14.9
75 | CCC(C)[C@H](NC(=O)N1CCn2c1nc1ccccc12)C(=O)NCCc1ccc(OC)c(OC)c1 (some centres unmarked) | 6.72
76 | Cc1ccc(C)c(S(=O)(=O)c2c(C)cc(C)[nH]c2=O)c1 | 13.7
77 | CNC1(c2nnnn2-c2ccccc2C)CCOC(C)(C)C1 (centres unmarked) | 12.5
78 | Cc1ccccc1C(=O)NCC(=O)OC(C)C(=O)Nc1ccnn1C(C)C (centres unmarked) | 2.62
79 | Cc1ccc(C)c(OCCC(=O)NCCc2ccc(S(N)(=O)=O)cc2)c1 | 13.5
80 | CC1(C)Cc2cccc(OCC(=O)Nc3cc(S(C)(=O)=O)ccc3Cl)c2O1 | 14.1
81 | O=C(CSc1nnc(C2CC2)n1-c1ccccc1)NCc1ccco1 | 9.78
82 | COc1ccc(CNC(=O)C2CCN(S(=O)(=O)c3ccc4c(c3)N(C(C)=O)CCO4)CC2)cc1 | 2.29
83 | O=c1[nH]nc(SCCS(=O)(=O)c2ccc(F)cc2)n1-c1ccc2c(c1)OCCO2 | 6.54
84 | Cc1onc(-c2ccccc2)c1C(=O)N/N=C/c1cn(C)c2ccccc12 | 13.3
85 | Cn1c(=O)oc2cc(S(=O)(=O)CCC(=O)N3CCN(c4ccccc4)CC3)ccc21 | 13.9
86 | CC(=O)Nc1ccc(-c2csc(Nc3cc(C)ccn3)n2)cc1 | 7.02
